# Results: PubChem BioAssay (Tox21)
# This list was built around the results that the source calls inconclusive (neither active nor inactive); the mix of calls is not that of the screen. A call without a number means that no potency is given here. For some of these results: Potencies beside an inconclusive call are fits to weak or partial responses and may not hold up. The source made the active and inactive calls. Calls follow the shape of the dose curve; as a rule, active = well fitted curve in the direction sought with a large enough effect in the repeat runs; inconclusive = weak or mixed curves; inactive = no such curve, though single readings can be large; an effect the other way counts as inactive or inconclusive.
# Tests used:
# [1] = qHTS RealTime-Glo MT Cell Viability Assay in HepG2 cells - 16 hour (AID 1224885); also: nearly all actives have a fitted effect of over 50% in size; also: potency is read from the fitted curve at half-maximal effect
# Method in brief: (§1)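 Cells + NanoLuc/prosubstrate dispensed (600 cells/well) → 5 h at 37 C/5% CO2 → compounds in DMSO transferred → 40 h incubation at 37 C, luminescence read at 0, 8, 16, 24, 32, 40 h.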
# [2] = A CellTox Green Cytotoxicity Assay to monitor cytotoxicity in HEK293 cells - 16 hour (AID 1224888); also: nearly all actives have a fitted effect of over 35% in size
# Method in brief: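 Tox21 screen in HEK293: membrane-impermeant cyanine dye fluoresces on binding dead-cell DNA; compound pinned 5 h post-seeding, plates held at 37 C, signal read repeatedly through 40 h.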
# [3] = qHTS RealTime-Glo MT Cell Viability Assay in HEK293 cells - 24 hour (AID 1224886); also: nearly all actives have a fitted effect of over 50% in size; also: potency is read from the fitted curve at half-maximal effect
# Method in brief: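 Tox21 10K qHTS, HEK293, 600 cells/well, RealTime-Glo reagent co-dispensed with cells; 5 h preincubation, compound by pintool, 37 C, luminescence at 0–40 h.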
# [4] = qHTS RealTime-Glo MT Cell Viability Assay in HepG2 cells - 0 hour (AID 1224889); also: nearly all actives have a fitted effect of over 50% in size
# Method in brief: as §1
# [5] = qHTS assay to identify small molecule antagonists of the estrogen receptor alpha (ER-alpha) signaling pathway using the BG1 cell line in the presence of 0.1 nM 17-beta-estradiol - cell viability counter screen (AID 1259241); also: potency is read from the fitted curve at half-maximal effect; nearly all actives have a fitted effect of over 40% in size
# Method in brief: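 CellTiter-Fluor read (30 min, 37C) on ER-alpha/ERE-luc VM7Luc4E2 cells; 22 hr compound treatment; agonist 0.1 nM E2 final; same-well multiplex.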
# [6] = qHTS assay to identify small molecule antagonists of the androgen receptor (AR) signaling pathway using the MDA cell line in the presence of 0.5 nM R1881 - cell viability counter screen (AID 1259242); also: nearly all actives have a fitted effect of over 45% in size; also: potency is read from the fitted curve at half-maximal effect
# Method in brief: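 Concentration-response screen of compounds for toxicity in MDA-kb2 reporter cells: 16 hr at 37C with 0.5 nM R1881, endpoint live-cell protease fluorescence measured in the reporter wells.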
# [7] = molecular target: Estrogen receptor (Homo sapiens) (UniProt P03372); assay: qHTS assay to identify small molecule antagonists of the estrogen receptor alpha (ER-alpha) signaling pathway using the BG1 cell line in the presence of 0.1 nM 17-beta-estradiol (AID 1259244); also: nearly all actives have a fitted effect of over 50% in size; also: potency is read from the fitted curve at half-maximal effect
# Method in brief: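 Compounds were tested against 0.1 nM (final) 17beta-estradiol in VM7Luc4E2 cells, which express full-length ER-alpha and an ERE-luciferase reporter; luminescence was recorded following 22 h exposure.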
# [8] = qHTS assay to identify small molecule antagonists of the sonic hedgehog signaling (Shh) pathway - cell viability counter screen (AID 1259367); also: nearly all actives have a fitted effect of over 55% in size; also: potency is read from the fitted curve at half-maximal effect
# Method in brief: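 Tox21 library chemicals were tested on a Gli1-Luc NIH/3T3 clone (2,000 cells/well) stimulated by conditioned medium; viability was quantified as fluorescence from CellTiter-Fluor reagent added at 23 hr.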
# [9] = qHTS RealTime-Glo MT Cell Viability Assay in HEK293 cells - 8 hour (AID 1224887); also: nearly all actives have a fitted effect of over 50% in size; also: potency is read from the fitted curve at half-maximal effect
# Method in brief: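 HEK293 + NanoLuc + prosubstrate, 600 cells/well; 5 h, 37 C/5% CO2; compound 23 nL in DMSO by pintool; 37 C; luminescence read at 0, 8, 16, 24, 32 and 40 h time points.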
# [10] = A CellTox Green Cytotoxicity Assay to monitor cytotoxicity in HepG2 cells - 8 hour (AID 1224890); also: potency is read from the fitted curve at half-maximal effect; nearly all actives have a fitted effect of over 45% in size
# Method in brief: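 Measurements at 0, 8, 16, 24, 32 and 40 h of treatment captured CellTox Green fluorescence in HepG2 cells that had been co-plated with reagent and preincubated 5 h at 37 C/5% CO2.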
# [11] = qHTS assay to identify small molecule HDAC inhibitors (AID 1259364);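 also: wild-type HCT-116 cells with endogenous class I/II HDAC activity; potency is read from the fitted curve at half-maximal effect; nearly all actives have a fitted effect of over 45% in size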
# Method in brief: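 Screening used wild-type human colon HCT-116 cells incubated overnight, dosed with compounds for 2 hours, and assayed with a homogeneous luminogenic HDAC I/II reagent for 30 minutes at room temperature.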
# [12] = qHTS assay to identify small molecule agonists of the sonic hedgehog signaling (Shh) pathway - cell viability counter screen (AID 1259366); also: nearly all actives have a fitted effect of over 50% in size
# Method in brief: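 Fluorescence from CellTiter-Fluor reports live cells in this counter screen. NIH/3T3-derived Gli1-Luc reporter cells receive test compounds for 24hr at 37C; reagent goes in at 23hr.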
# Tags tell the direction and shape of the fitted curve.
# Sequence of UniProt P03372 (P03372 whole entry, looked up): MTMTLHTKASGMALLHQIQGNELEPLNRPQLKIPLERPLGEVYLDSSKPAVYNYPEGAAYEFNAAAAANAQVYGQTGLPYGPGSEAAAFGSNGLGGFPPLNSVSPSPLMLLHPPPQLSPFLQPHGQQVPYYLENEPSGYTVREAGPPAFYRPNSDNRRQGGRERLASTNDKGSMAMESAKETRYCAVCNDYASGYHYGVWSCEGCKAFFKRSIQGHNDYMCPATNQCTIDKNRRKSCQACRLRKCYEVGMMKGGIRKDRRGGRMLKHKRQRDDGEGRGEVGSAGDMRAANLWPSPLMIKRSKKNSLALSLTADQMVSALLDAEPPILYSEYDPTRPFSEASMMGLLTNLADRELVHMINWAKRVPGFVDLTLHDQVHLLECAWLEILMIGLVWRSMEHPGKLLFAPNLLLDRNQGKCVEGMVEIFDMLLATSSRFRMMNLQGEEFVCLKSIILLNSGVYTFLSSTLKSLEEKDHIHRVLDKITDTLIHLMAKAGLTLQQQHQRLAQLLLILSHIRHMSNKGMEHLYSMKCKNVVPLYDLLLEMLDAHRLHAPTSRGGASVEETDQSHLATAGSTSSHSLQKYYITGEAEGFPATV
smiles,measurement,setting,value
O=C(O)C(Cc1cc(I)c(O)c(I)c1)c1ccccc1 (centres undefined),Potency,[1],inactive
CCOC(=O)/C=C/c1ccccc1,Potency,[1],inactive
C=CC(=O)OCCCl,Potency,[1],inactive
same,Potency,[2],inactive
CCC(C(=O)OCCN(CC)CC)c1ccccc1 (centres undefined),Potency,[1],inactive
CC(C)C[C@H](NC(=O)[C@H](Cc1ccccc1)NC(=O)c1cnccn1)B(O)O,Potency,[1],"inconclusive: 0.379 µM [cytotoxic, partial curve, poor fit]"
same,Potency,[3],active: 0.0756 µM
same,Potency,[4],inactive
same,Potency,[5],active: 0.266 µM
same,Potency,[6],"inconclusive: 0.0531 µM [cytotoxic, full curve, poor fit]"
same,Potency,[7],active: 0.0596 µM
NS(=O)(=O)c1cc2c(cc1Cl)NCNS2(=O)=O,Potency,[1],inactive
same,Potency,[7],"inconclusive: 67.5 µM [inhibitor, single point]"
same,Potency,[8],"inconclusive: 67.5 µM [cytotoxic, single point]"
C[C@H]1O[C@H](O[C@H]2[C@H](O)[C@@H](O)[C@@H](O[C@H]3[C@H](O)[C@@H](O)[C@H](O)O[C@@H]3CO)O[C@@H]2CO)[C@H](O)[C@@H](O)[C@@H]1N[C@H]1C=C(CO)[C@@H](O)[C@H](O)[C@H]1O,Potency,[3],inactive
CC(=O)Nc1cccc(O)c1,Potency,[1],inactive
same,Potency,[7],inactive
same,Potency,[8],inactive
CNC(=O)Nc1ccc(Cl)c(Cl)c1,Potency,[1],inactive
same,Potency,[9],inactive
same,Potency,[10],"inconclusive: 21.9 µM [activator, single point]"
same,Potency,[7],"inconclusive: 68.6 µM [inhibitor, single point]"
same,Potency,[11],"inconclusive: 68.6 µM [inhibitor, single point]"
same,Potency,[12],inactive
O=C(Cl)c1cc(Cl)cc(Cl)c1,Potency,[1],inactive
same,Potency,[3],inactive
same,Potency,[2],inactive
N#Cc1ccc(C/C(=N/NC(=O)Nc2ccc(OC(F)(F)F)cc2)c2cccc(C(F)(F)F)c2)cc1,Potency,[1],"inconclusive: 49 µM [cytotoxic, single point]"
same,Potency,[6],inactive
O=C(O)c1cc(O)c(O)c(O)c1,Potency,[1],"inconclusive: 44.1 µM [cytotoxic, partial curve]"
same,Potency,[9],"inconclusive: 49.4 µM [cytotoxic, partial curve]"
same,Potency,[6],inconclusive: 49 µM [cytotoxic]
same,Potency,[7],"inconclusive: 49 µM [inhibitor, partial curve]"
same,Potency,[8],"inconclusive: 49 µM [cytotoxic, partial curve]"
